The campaign covered roughly 43,000 compounds. About 200 (0.47%) were called active. Inconclusive results (about 12%) are left out. Calls come from the whole dose curve; as a rule, active = well fitted cell-killing curve with a large enough effect; inconclusive = small, poorly fitted or top-dose-only effect, or effect the other way; inactive = flat fitted curve, though single readings scatter. The list shows a part of the results.
% is set by controls: 0 for no effect and ±100 for the full control effect.

This experiment is described as follows: Cell viability qHTS assay in S16 Pmp22-F2sN cells. Note: nearly all actives have a fitted effect of over 65% in size. As to conditions: S16 Pmp22-F2sN Schwann cells viability, CellTiter-Glo, 24 h; series mostly up to 57.5 µM; activity change, negative = cytotoxicity: at the top concentration. The gist of the method: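 S16 Pmp22-F2sN Schwann cells (500-1,000/well) in phenol-red-free DMEM with 10% FBS received 23 nL compound by pin tool for 24 h at 37 °C. Viability was then read as CellTiter-Glo luminescence after 15 min at room temperature.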
Take `COc1ccc(-n2cc(-c3ccccc3)c3c(NC4CCCC4)ncnc32)cc1`: the “activity change, negative = cytotoxicity” value was inactive: -17.1%. To `CCOc1ccc(CNC(=O)CC(C)n2nc(C)cc2C)cc1OC` (stereo not drawn) belongs inactive: 3.06%; to `Cc1ccc2c(c1)c1c(c(=O)n(-c3ccccc3)c(=O)n1CC(=O)c1ccc(F)cc1)n2C`, inactive: 0.578%. As for `CC1=C(C(=O)Nc2ccc(C)cc2C)C(c2ccc(C(=O)O)cc2)n2nc(SCc3ccccc3)nc2N1` (stereo not drawn), the “activity change, negative = cytotoxicity” value was inactive: 2.49%. Next, `CCc1cccc(NC(=O)Cn2c(=O)n(-c3cccc(Cl)c3)c(=O)c3c2c2cc(C)ccc2n3C)c1`: inactive: 19.2%; `COc1ccc(OC)c(CNC(=O)c2cnc3c(C)cccn3c2=O)c1`: inactive: 10.2%; `Cc1ccc(NC(=O)c2ccc(CN3CC(=O)N4CCCCC4C3=O)cc2)cc1` (stereo not drawn): inactive: 22.1%.

For `O=C(Nc1cccc(C(F)(F)F)c1)N1CC2CCCN2c2ccccc21` (stereo not drawn), the “activity change, negative = cytotoxicity” value was inactive: -21.4%. To `COc1ccc(-n2nc(C(=O)Nc3ccc(Cl)cn3)c3c4ccccc4n(C)c3c2=O)cc1` belongs inactive: -0.33%. To `Cc1cccc(NC(=O)Cn2nc3c4ccccc4n(Cc4ccccc4)cc-3c2=O)c1` belongs inactive: 8.21%; to `COc1ccc2cc(-c3nnc(Nc4ccccc4)s3)c(=O)oc2c1`, inactive: -3.76%. Next, `CC(=O)c1cc(-c2ccc(F)cc2)n(CC(=O)NC2CCC(C)CC2)c1C` (stereo not drawn): inactive: -1.73%; `CC(=O)c1cccc(NC(=O)Nc2nnc(N3CCCC3)s2)c1`: inactive: -16.8%.

As for `COc1cccc(CNC(=O)c2ccc3c(=O)n4nc(Nc5ccccc5)sc4nc3c2)c1`, the “activity change, negative = cytotoxicity” value was inactive: -2.87%. Next, `CCCOc1ccc(CNC(=O)c2ccc(C)c(-n3c(C)nc4cccnc43)c2)cc1`: inactive: -2.62%; `Cc1oc2ncn(C)c(=O)c2c1C(=O)NCCCN1CCCCC1C` (stereo not drawn): inactive: 0.594%; `Cc1ccc(N2CCN(C(=O)c3cnn(-c4ccc(F)cc4F)c3C3CCN(C(=O)OC(C)(C)C)CC3)CC2)c(C)c1`: inactive: -10.1%. Next, `CN(Cc1ccccc1)S(=O)(=O)c1ccc2[nH]c3c(c2c1)CCCCC3`: inactive: -7.58%; `CCN1CCN(C(c2ccc(C)cc2)c2c(O)cc(C)n(Cc3ccco3)c2=O)CC1` (stereo not drawn): inactive: -2.05%; `COc1ccc(-n2nc(C(=O)O)c(=O)n(C)c2=O)cc1`: inactive: -0.172%. To `COc1cc(OC)c(N(C)C(=O)c2cn(C3CCCC3)c(=O)c3c2c2ccccc2n3C)cc1Cl` belongs inactive: -29.9%; to `Cc1ccccc1C(=O)OCc1cc(=O)n2nc(C(C)C)sc2n1`, inactive: 3.26%. On to `Cc1ccc(Nc2nc3ccccc3c3nnc(C)n23)c(C)c1`, for which the “activity change, negative = cytotoxicity” value is inactive: 6.25%. To `COc1ccc(-c2cc3nc(C)c(CCC(=O)N4CCN(c5ccc(F)cc5)CC4)c(C)n3n2)c(OC)c1` belongs inactive: -3.63%.

In the case of `COc1ccc(NC(=O)c2c(C)oc3ccc(O)c(CN4CCN(Cc5ccccc5)CC4)c23)cc1Cl`, the “activity change, negative = cytotoxicity” value is inactive: -7.55%. Next, `CCCCN(CCCC)CCNC(=O)CN1C(=O)CSc2ccc(S(=O)(=O)N3CCOCC3)cc21`: inactive: -1.98%. `COc1ccccc1OCC(=O)NC1CC(=O)N(c2ccc3c(c2)OCCO3)C1` (stereo not drawn): the “activity change, negative = cytotoxicity” value was inactive: 3.48%. To `CC(=O)c1cccc(Nc2cc(C)nc3nc(Cc4ccccc4)nn23)c1` belongs inactive: 8.31%. To `COc1ccc(CNC(=O)c2cc(=O)[nH]c3ccc(S(=O)(=O)N4CCCC4)cc23)c(OC)c1` belongs inactive: 10.2%; to `O=C(NCCc1ccccc1)c1ccc2c(c1)N(Cc1ccccc1)C(=O)c1ccccc1S2(=O)=O`, inactive: -9.69%. To `COc1ccc(Cl)cc1NC(=O)c1ccc2c(c1)CCN2S(C)(=O)=O` belongs inactive: -6.05%; to `Cc1cc(NC(=O)CSc2nc(-c3ccccc3C)nc3c2c(=O)n(C)c(=O)n3C)no1`, inactive: 5.14%. With `CCOc1cc(C(=O)Nc2cccc3cccnc23)cc(OCC)c1OCC`, the “activity change, negative = cytotoxicity” value was inactive: -1.37%. Next, `CC(=O)c1cccc(NC(=O)C(CC(C)C)NS(=O)(=O)c2ccc3c(c2)CCN3C(C)=O)c1` (stereo not drawn): inactive: -10.1%; `CCOC(=O)CN(Cc1ccccc1)C(C(=O)NC1CCCCC1)c1ccc(OC)cc1` (stereo not drawn): inactive: -17.1%. `Cc1c(Cl)cccc1NC(=O)C1CCCN(c2ncnc3onc(C)c23)C1` (stereo not drawn): the “activity change, negative = cytotoxicity” value is inactive: 1.33%. With `CCOC(=O)N1CCC(NC(=O)c2cnn(-c3cccc(F)c3)c2-n2cccc2)CC1`, the “activity change, negative = cytotoxicity” value is inactive: -0.0256%. Next, `COc1ccc(CCC(=O)NCc2nc3cccnc3n2Cc2ccc(F)cc2)cc1`: inactive: 1.51%. To `CC1CCN(S(=O)(=O)c2ccc3c(c2)c(=O)c(C(=O)NC(C)c2ccccc2)cn3C)CC1` (stereo not drawn) belongs inactive: -20.7%; to `Cc1ccc(Cl)cc1N1CCN(C(=O)c2ccc3c(c2)CCN3S(=O)(=O)c2ccccc2)CC1`, inactive: 5.63%; to `NS(=O)(=O)c1ccc(CCNc2ncnc3c2cnn3-c2cccc(Cl)c2)cc1`, inactive: 11.4%. Next, `O=C(NCc1ccccc1Cl)c1ccc2c(c1)N(Cc1ccccc1)C(=O)CS2`: inactive: -26.1%; `Cc1ccc2c(c1)-c1c(cnc3cc(-c4ccc(F)cc4)nn13)CO2`: inactive: -0.0287%; `CCc1ccc(C2=C(C)C(N3CCC(C(=O)NCc4ccccc4)CC3)=NS2(=O)=O)cc1`: inactive: 1.67%. On to `Cc1ccc(CNC(=O)c2c(O)nc3cc(C)ccn3c2=O)cc1`, for which the “activity change, negative = cytotoxicity” value is inactive: -9.08%. `CC(c1ccccc1)n1cc2c(c1-c1ccccc1Br)c(=O)n(C)c(=O)n2C` (stereo not drawn): the “activity change, negative = cytotoxicity” value is inactive: -8.78%. For `COc1cccc(NC(=O)CCc2c(C)nc3nc(CNC(=O)c4cccc(F)c4)nn3c2C)c1`, the “activity change, negative = cytotoxicity” value was inactive: -0.645%. To `CCc1cc(C(=O)Nc2sc(C)c(CC)c2C#N)no1` belongs inactive: 3.81%.

(Values after PubChem BioAssay AID1508642 (National Center for Advancing Translational Sciences (NCATS), 2021).)
